Measured values from the supplement of paper PMC8728848.
This is one part of the list.

How the values were obtained:
Assay in all cases: glycan array binding signal (z-score within array); higher = stronger binding
Conditions in all cases: glycan notation: IUPAC condensed, linker removed
Gal(b1-2)Gal = biological target: Gal(b1-2)Gal
Summary of the method: (§1)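 Arrays were curated from the Consortium for Functional Glycomics database, 3228 in total, and kept only where the protein sequence was available. Binding is expressed as a within-array Z-score. This score was averaged across arrays of the same protein sequence at different concentrations or buffers and across linkers, and negative values can be read as non-binding.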

Gal(b1-3)Gal = biological target: Gal(b1-3)Gal
Summary of the method: as §1

Gal(b1-3)Gal(b1-4)GlcNAc = biological target: Gal(b1-3)Gal(b1-4)GlcNAc
Summary of the method: as §1

Gal(b1-3)GalNAc = biological target: Gal(b1-3)GalNAc
Summary of the method: as §1

[1] = biological target: Gal(b1-3)GalNAc(a1-3)[Fuc(a1-2)]Gal(b1-4)Glc
Summary of the method: as §1

[2] = biological target: Gal(b1-3)GalNAc(a1-3)[Fuc(a1-2)]Gal(b1-4)GlcNAc
Summary of the method: as §1

Gal(b1-3)GalNAc(b1-3)Gal = biological target: Gal(b1-3)GalNAc(b1-3)Gal
Summary of the method: as §1

[3] = biological target: Gal(b1-3)GalNAc(b1-3)Gal(a1-4)Gal(b1-4)Glc
Summary of the method: as §1

[4] = biological target: Gal(b1-3)GalNAc(b1-4)Gal(b1-4)Glc
Summary of the method: as §1

[5] = biological target: Gal(b1-3)GalNAc(b1-4)[Neu5Ac(a2-3)]Gal(b1-4)Glc
Summary of the method: as §1

Gal(b1-3)GlcNAc = biological target: Gal(b1-3)GlcNAc
Summary of the method: as §1

[6] = biological target: Gal(b1-3)GlcNAc(a1-3)Gal(b1-4)GlcNAc
Summary of the method: as §1

[7] = biological target: Gal(b1-3)GlcNAc(a1-6)Gal(b1-4)GlcNAc
Summary of the method: as §1

Gal(b1-3)GlcNAc(b1-2)Man = biological target: Gal(b1-3)GlcNAc(b1-2)Man
Summary of the method: as §1

[8] = biological target: Gal(b1-3)GlcNAc(b1-2)Man(a1-3)[Gal(b1-3)GlcNAc(b1-2)Man(a1-6)]Man(b1-4)GlcNAc(b1-4)GlcNAc
Summary of the method: as §1

[9] = biological target: Gal(b1-3)GlcNAc(b1-2)Man(a1-3)[Gal(b1-3)GlcNAc(b1-2)Man(a1-6)]Man(b1-4)GlcNAc(b1-4)[Fuc(a1-6)]GlcNAc
Summary of the method: as §1

[10] = biological target: Gal(b1-3)GlcNAc(b1-2)Man(a1-3)[GlcNAc(b1-4)][Gal(b1-3)GlcNAc(b1-2)Man(a1-6)]Man(b1-4)GlcNAc(b1-4)GlcNAc
Summary of the method: as §1

[11] = biological target: Gal(b1-3)GlcNAc(b1-2)[Gal(b1-3)GlcNAc(b1-6)]Man(a1-6)[Gal(b1-3)GlcNAc(b1-2)Man(a1-3)]Man(b1-4)GlcNAc(b1-4)GlcNAc
Summary of the method: as §1

[12] = biological target: Gal(b1-3)GlcNAc(b1-3)Gal(b1-3)GlcNAc
Summary of the method: as §1

[13] = biological target: Gal(b1-3)GlcNAc(b1-3)Gal(b1-4)Glc
Summary of the method: as §1

[14] = biological target: Gal(b1-3)GlcNAc(b1-3)Gal(b1-4)GlcNAc
Summary of the method: as §1

[15] = biological target: Gal(b1-3)GlcNAc(b1-3)Gal(b1-4)GlcNAc(b1-2)Man(a1-3)[Gal(b1-3)GlcNAc(b1-3)Gal(b1-4)GlcNAc(b1-2)Man(a1-6)]Man(b1-4)GlcNAc(b1-4)GlcNAc
Summary of the method: as §1

[16] = biological target: Gal(b1-3)GlcNAc(b1-3)Gal(b1-4)GlcNAc(b1-2)[Gal(b1-3)GlcNAc(b1-3)Gal(b1-4)GlcNAc(b1-6)]Man(a1-6)[Gal(b1-3)GlcNAc(b1-3)Gal(b1-4)GlcNAc(b1-2)Man(a1-3)]Man(b1-4)GlcNAc(b1-4)[Fuc(a1-6)]GlcNAc
Summary of the method: as §1

[17] = biological target: Gal(b1-3)GlcNAc(b1-3)Gal(b1-4)GlcNAc(b1-3)Gal(b1-4)GlcNAc(b1-2)[Gal(b1-3)GlcNAc(b1-3)Gal(b1-4)GlcNAc(b1-3)Gal(b1-4)GlcNAc(b1-6)]Man(a1-6)[Gal(b1-3)GlcNAc(b1-3)Gal(b1-4)GlcNAc(b1-3)Gal(b1-4)GlcNAc(b1-2)Man(a1-3)]Man(b1-4)GlcNAc(b1-4)[Fuc(a1-6)]GlcNAc
Summary of the method: as §1

[18] = biological target: Gal(b1-3)GlcNAc(b1-3)Gal(b1-4)GlcNAc(b1-6)[Gal(b1-3)GlcNAc(b1-3)]Gal(b1-4)Glc
Summary of the method: as §1

[19] = biological target: Gal(b1-3)GlcNAc(b1-3)Gal(b1-4)[Fuc(a1-3)]GlcNAc
Summary of the method: as §1

[20] = biological target: Gal(b1-3)GlcNAc(b1-3)Gal(b1-4)[Fuc(a1-3)]GlcNAc(b1-6)[Gal(b1-3)GlcNAc(b1-3)]Gal(b1-4)Glc
Summary of the method: as §1

[21] = biological target: Gal(b1-3)GlcNAc(b1-3)GalNAc
Summary of the method: as §1

[22] = biological target: Gal(b1-3)GlcNAc(b1-6)Gal(b1-4)GlcNAc
Summary of the method: as §1

[23] = biological target: Gal(b1-3)GlcNAc(b1-6)GalNAc
Summary of the method: as §1

[24] = biological target: Gal(b1-3)GlcNAc(b1-6)[Gal(b1-3)]GalNAc
Summary of the method: as §1

Gal(b1-3)GlcNAc6S = biological target: Gal(b1-3)GlcNAc6S
Summary of the method: as §1

[25] = biological target: Gal(b1-3)[Fuc(a1-4)]GlcNAc
Summary of the method: as §1

[26] = biological target: Gal(b1-3)[Fuc(a1-4)]GlcNAc(b1-2)Man
Summary of the method: as §1

[27] = biological target: Gal(b1-3)[Fuc(a1-4)]GlcNAc(b1-2)Man(a1-3)[Gal(b1-3)[Fuc(a1-4)]GlcNAc(b1-2)Man(a1-6)]Man(b1-4)GlcNAc(b1-4)[Fuc(a1-6)]GlcNAc
Summary of the method: as §1

[28] = biological target: Gal(b1-3)[Fuc(a1-4)]GlcNAc(b1-3)Gal(b1-3)[Fuc(a1-4)]GlcNAc
Summary of the method: as §1

[29] = biological target: Gal(b1-3)[Fuc(a1-4)]GlcNAc(b1-3)Gal(b1-4)[Fuc(a1-3)]GlcNAc
Summary of the method: as §1

[30] = biological target: Gal(b1-3)[Fuc(a1-4)]GlcNAc(b1-6)GalNAc
Summary of the method: as §1

[31] = biological target: Gal(b1-3)[GlcNAc(b1-6)]GalNAc
Summary of the method: as §1

[32] = biological target: Gal(b1-3)[Neu5Ac(a2-6)]GalNAc
Summary of the method: as §1

[33] = biological target: Gal(b1-3)[Neu5Ac(a2-6)]GlcNAc(b1-4)Gal(b1-4)Glc
Summary of the method: as §1

[34] = biological target: Gal(b1-3)[Neu5Ac(b2-6)]GalNAc
Summary of the method: as §1

Gal(b1-4)Gal = biological target: Gal(b1-4)Gal
Summary of the method: as §1

[35] = biological target: Gal(b1-4)GalNAc(a1-3)[Fuc(a1-2)]Gal(b1-4)GlcNAc
Summary of the method: as §1

[36] = biological target: Gal(b1-4)GalNAc(b1-3)[Fuc(a1-2)]Gal(b1-4)GlcNAc
Summary of the method: as §1

B1: FimA-N3 (Actinomyces oris) (protein)
chain: MHHHHHHSSGVDLGTENLYFQSNAGLQGAQFQLYKAKNAYANTCSNEKEGAPIAINGQTTLTTDAQGAIDIKGLFISDSIDGADRDNQVNAMERCYVLVETKAPAGYVLPAGNGAATPVKVKAGEETTDN
glycan array binding signal (z-score) (Gal(b1-2)Gal): 0.08
glycan array binding signal (z-score) (Gal(b1-3)Gal): -0.108
glycan array binding signal (z-score) (Gal(b1-3)Gal(b1-4)GlcNAc): 0.999
glycan array binding signal (z-score) (Gal(b1-3)GalNAc): 0.244
glycan array binding signal (z-score) [1]: -0.081
glycan array binding signal (z-score) [2]: 0.295
glycan array binding signal (z-score) (Gal(b1-3)GalNAc(b1-3)Gal): -0.367
glycan array binding signal (z-score) [3]: 0.262
glycan array binding signal (z-score) [4]: 3.23
glycan array binding signal (z-score) [5]: -0.192
glycan array binding signal (z-score) (Gal(b1-3)GlcNAc): -0.153
glycan array binding signal (z-score) [6]: 1.71
glycan array binding signal (z-score) [7]: -0.34
glycan array binding signal (z-score) (Gal(b1-3)GlcNAc(b1-2)Man): -0.37
glycan array binding signal (z-score) [8]: -0.683
glycan array binding signal (z-score) [9]: -0.211
glycan array binding signal (z-score) [10]: 0.346
glycan array binding signal (z-score) [11]: -0.158
glycan array binding signal (z-score) [12]: 0.606
glycan array binding signal (z-score) [13]: -0.319
glycan array binding signal (z-score) [14]: -0.594
glycan array binding signal (z-score) [15]: -0.344
glycan array binding signal (z-score) [16]: 2.94
glycan array binding signal (z-score) [17]: 1.66
glycan array binding signal (z-score) [18]: -0.492
glycan array binding signal (z-score) [19]: 0.531
glycan array binding signal (z-score) [20]: -0.583
glycan array binding signal (z-score) [21]: -0.259
glycan array binding signal (z-score) [22]: -0.454
glycan array binding signal (z-score) [23]: -0.391
glycan array binding signal (z-score) [24]: -0.486
glycan array binding signal (z-score) (Gal(b1-3)GlcNAc6S): -0.047
glycan array binding signal (z-score) [25]: -0.526
glycan array binding signal (z-score) [26]: -0.349
glycan array binding signal (z-score) [27]: -0.106
glycan array binding signal (z-score) [28]: -0.452
glycan array binding signal (z-score) [29]: -0.325
glycan array binding signal (z-score) [30]: -0.118
glycan array binding signal (z-score) [31]: -0.271
glycan array binding signal (z-score) [32]: -0.069
glycan array binding signal (z-score) [33]: -0.199
glycan array binding signal (z-score) [34]: -0.563
glycan array binding signal (z-score) (Gal(b1-4)Gal): -0.499
glycan array binding signal (z-score) [35]: -0.578
glycan array binding signal (z-score) [36]: -0.587
